In patent publication US12121518B2, “PARP-1 and methods of use thereof” (The Board of Supervisors of Louisiana State University and …, priority 2017, dated 2024):

Assays:
CT-26 cell-based tumors = experiment: CT-26 cell-based colon carcinoma model in BALB/c mice; type: in vivo, mouse; conditions: low dose olaparib, anti-PD1, alone or combined
Text: Therefore, we used the more aggressive colon carcinoma cell line CT-26, which has a BALB/c genetic background.

CD4+ T-enriched cells = conditions: cited from earlier work
[1] = test system: bone marrow-derived MDSCs; experiment: Bone marrow-derived MDSC differentiation in vitro: viability and CD11b/Gr1 phenotype by FACS
advanced colon cancer = conditions: monotherapy or in combination with irinotecan; cited from earlier work
MDSCs = experiment: T-cell suppression assay with MDSCs isolated from MC-38 tumors of treated mice (ex vivo); type: cell-based, mouse; conditions: MDSC/T cell ratio 1:8, no drug in co-culture
Text: Without wishing to be bound by theory, PARP-1 may influence the function rather than the phenotype of MDSCs. […] As expected, MDSCs isolated from tumors of WT mice were effective at suppressing T-cell proliferation upon stimulation (FIG. 35G).

MC-38 cell-based tumors = experiment: Immunoblot of protein extracts from MC-38 tumors; type: in vivo, mouse; conditions: olaparib 0.2 mg/kg, anti-PD1 100 μg, alone or combined
Description: (A) Protein extracts from MC-38 cells, RAW264.7 cells, or mouse embryonic fibroblasts derived from WT, PARP-1^+/−, or PARP-1^−/− mice were subjected to immunoblot analysis. (B) MC-38 cells (2.5×10^5) were injected s. c. into the left flanks of WT, PARP-1^+/− or PARP-1^−/− mice. Tumor sizes were measured at day 21. (C) Mice were sacrificed and tumor sections were subjected to H&E (left panels) or IHC straining (right panels) with antibodies to ICAM-1. (D) Spleen weight of mice from the different groups. (E) MC-38 cells were engrafted onto WT mice. […] Tumor volume was measured at the indicated days. (F) Mice were sacrificed at day 24 and tumor sections were subjected to IHC straining with antibodies to ICAM-1. (G) Sera from the different mouse groups were assessed for TNF-α, IL-6 or MCP-1 by ELISA. […] For (B), (D-E), and (G): p≤0.05; **, p≤0.01; ***, p≤0.001. Bar=50 μm.
Cell fractionation, protein extraction and immunoblot analysis—Tumor tissues or cells were harvested and homogenized in RIPA lysis buffer (Santa Cruz Biotechnology) containing a cocktail of protease and phosphatase inhibitors on ice. […] Protein expression signals developed by ECL (Pierce, ThermoFisher Scientific) were determined by a G:Box Gel Image Analysis System (Syngene, Cambridge, UK) equipped with the GeneSys image capture software.

## O=C(c1cc(Cc2n[nH]c(=O)c3ccccc23)ccc1F)N1CCN(C(=O)C2CC2)CC1 [olaparib]
CT-26 cell-based tumors
  tumor size / tumor burden: statistically significant reduction in tumor size
CD4+ T-enriched cells; higher concentration 5 μM
  percentage of CD25+/Foxp3+ Treg cells: almost doubled the percentage
CD4+ T-enriched cells; moderate concentration 1 μM
  CD25+/Foxp3+ Treg cell population: did not induce an increase
[1]; 5 μM (FIG. 41A)
  percentage of viable differentiated cells: slight but statistically significant decrease in percentage of viable cells
[1]; low concentration 4 nM
  percentage of CD11b+/Gr1+ MDSCs: no effect
[1]; moderate concentration 0.1 μM
  percentage of CD11b+/Gr1+ MDSCs: no effect
Advanced colon cancer
  clinical outcome: disappointing results
MDSCs; mice treated with 0.2 mg/kg
  capacity of tumor MDSCs to suppress T-cell proliferation: reduced capacity to suppress T-cell proliferation
MDSCs; mice treated with moderate dose 5 mg/kg
  capacity of tumor MDSCs to suppress T-cell proliferation: more pronounced effect
MC-38 cell-based tumors
  PD-L1 in tumors: increase in PD-L1
  overall activation of caspases-3, -7, -8 and -9 in tumors: higher
